# Assay results as given in PubChem BioAssay AID1345082 (National Center for Advancing Translational Sciences (NCATS), 2018).
# Among all 94,000 compounds or so, about 4,000 (4.3%) were called active. Inconclusive results, whose numbers are uncertain, are shown with a selection of clear calls. Calls come from the whole dose curve; as a rule, active = well fitted inhibition curve with a large enough effect; inconclusive = small, poorly fitted or top-dose-only effect; inactive = no such curve, though single readings can be large or run the other way. A potency beside an inconclusive call is a rough fit, not a confirmed value.
# Experiment: Cytotoxic Profiling in NIH 3T3 Cell Line of Diverse Libraries Using Quantitative High-Throughput Screening; note: nearly all actives have a fitted effect of over 55% in size
# Settings: NIH 3T3 viability, CellTiter-Glo ATP luminescence, 48-72 h; activity change, negative = cytotoxicity: at 96.7 µM (top of the series) unless noted; series mostly up to 96.7 µM
# Summary of the method: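 Luminescent ATP readout (CellTiter-Glo, 10 min RT) after 48 or 72 hr compound exposure of NIH 3T3 cells seeded at 400 cells/well in 1536-well format; quantitative HTS.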
# % is set by controls: 0 for no effect and ±100 for the full control effect; potency is the fitted concentration of half-maximal effect; tags give direction and shape of the fitted curve.
SMILES,"activity change, negative = cytotoxicity",Potency,outcome
CCCCNC(=O)[C@@H]1CCCC[C@@H]1C(=O)N1CC(n2nc(C)cc2C)C1,inactive: -21.6%,,
Cc1noc(C)c1S(=O)(=O)N1CCC2(CC1)CC(Cc1ccc(F)cc1)CCO2 (configuration not stated),,"inconclusive: 70.8 µM [inhibitor, partial curve, poor fit]",
Cc1noc(C)c1CN1C[C@H]2[C@H](C1)[S+](=O)([O-])C(C)(C)C(=O)N2CCOc1ccccc1,,active: 39.8 µM,
C[S+](=O)([O-])N1CCC2(CC1)CC(c1cccc(C(F)(F)F)c1)=NO2,inactive: -30.6%,,
COc1cccc([S+](=O)([O-])N2CCCC3(C2)C(=NC2CCCCC2)NC(=O)N3c2cc(F)cc(F)c2)c1 (configuration not stated),inactive: -10.3%,,
COc1ccccc1-c1cnc(Nc2ccc(Cl)cn2)c2c1CCO2,,"inconclusive: 56.2 µM [inhibitor, partial curve, poor fit]",
O=C1CC(c2ccccc2)N(C(=O)Cc2cccnc2)CCCCCN1 (configuration not stated),inactive: -2.07%,,
CNC(=O)c1cc(C)nc2onc(C3CCN(C(=O)c4ccc(Cl)nc4)C3)c12 (configuration not stated),inactive: -20.7%,,
COc1ccc(C)cc1-c1ccc(COc2ccc3c(cnn3CCC(=O)O)c2)cc1,inactive: -16.1% [at 138 µM],,
Cc1ccc(NC(=O)Nc2ccc(C)n(CC(=O)NCCC(C)C)c2=O)cc1,,active: 35.5 µM,
Cn1cnc2cc(-c3cccc4[nH]ccc34)cc(C(=O)NCc3cccnc3)c21,,"inconclusive: 35.5 µM [inhibitor, partial curve]",
COc1ccc(-c2cnc3[nH]cc(CC(=O)N4CCNC(=O)C4)c3c2)cc1,,"inconclusive: 56.2 µM [inhibitor, partial curve, poor fit]",
Cc1ccc(S(=O)(=O)N2CCc3c(C(=O)NCC(C)C)cccc32)cc1,,"inconclusive: 50.1 µM [inhibitor, partial curve, poor fit]",
COC1C(=O)N(c2cccc(F)c2)C12CCN(C(=O)CCc1c[nH]c3ccccc13)CC2 (configuration not stated),inactive: -20%,,
Cc1cc(C)c(C(=O)N2CCCC(CCc3ccccc3C)C2)c(=O)[nH]1 (configuration not stated),inactive: -14.5%,,
COc1ccc2c(c1)OCC(C(=O)N(C)Cc1nccn1Cc1ccccc1)C2 (configuration not stated),,"inconclusive: 50.1 µM [inhibitor, partial curve, poor fit]",
COc1cccc(-c2ccc(C(=O)N3CCC(NC(=O)c4ccccc4OC)CC3)cc2)c1,,"inconclusive: 44.7 µM [inhibitor, partial curve, poor fit]",
CN(C(=O)C1CC1)C1CCCc2ccccc21 (configuration not stated),,"inconclusive: 100 µM [inhibitor, partial curve]",
COc1ccc(Nc2ccnc(N3CCC(NC(=O)c4ccccc4Cl)CC3)n2)cc1,,"inconclusive: 35.5 µM [inhibitor, partial curve, poor fit]",
CCCc1ccc(S(=O)(=O)N2CCN(C3CCN(CCC(C)C)C3=O)CC2)cc1 (configuration not stated),,"inconclusive: 39.8 µM [inhibitor, partial curve, poor fit]",
Cc1oc(C2CCN(C(=O)CN(C)S(=O)(=O)c3cccs3)CC2)nc1C(=O)N1CCOCC1,,"inconclusive: 44.7 µM [inhibitor, partial curve, poor fit]",
CCCN(C)C(=O)Cc1ccc(N(Cc2ccc(F)cc2)C(=O)c2ccco2)cc1,,"inconclusive: 50.1 µM [inhibitor, partial curve, poor fit]",
Cc1noc(C)c1Cc1c(C(=O)N2C[C@@H](Oc3cccnc3)C[C@H]2C(N)=O)noc1C,inactive: -12.3%,,

SMILES,"activity change, negative = cytotoxicity",Potency,outcome
O=C(NCc1ccccc1F)c1cc2n(n1)CC(c1ccc(Cl)cc1)OC2 (configuration not stated),,"inconclusive: 50.1 µM [inhibitor, partial curve, poor fit]",
O=C(Nc1ccc2c(c1)CN(Cc1ccc(Cl)cc1)C(=O)CO2)c1ccc(F)cc1F,,"inconclusive: 50.1 µM [inhibitor, partial curve, poor fit]",
COc1cccc(-c2cc(C(=O)NCc3c(C)cc(C)[nH]c3=O)c3c(c2)N(C(C)C)CCO3)c1OC,,"inconclusive: 70.8 µM [inhibitor, partial curve, poor fit]",
C[C@@]12CO[C@H](c3ccccc3)C[C@@H]1C[C@@H](N1CCN(Cc3ccc(F)cc3)CC1)C2,inactive: -37.2%,,
c1coc(-c2noc(CCCc3nc(C4CCOC4)no3)n2)c1 (configuration not stated),,"inconclusive: 50.1 µM [inhibitor, partial curve, poor fit]",
CC1(C)[C@H](Cc2cc(CN3CCN(c4ccccc4)CC3)on2)C[C@@H]1NC(=O)NCc1ccccc1,,"inconclusive: 22.4 µM [inhibitor, full curve]",
CCc1cccc(NC(=O)Cn2c(N3CCOCC3)nc(COC)cc2=O)c1,inactive: 0.532%,,
CC(C)CCN1C(=O)CC[C@]2(C(=O)N(C)Cc3ccccc3)CCCC[C@@H]12,,"inconclusive: 79.4 µM [inhibitor, partial curve, poor fit]",
COc1ccc(CN2CCOc3ccc(C(=O)NCc4ccc(C)cc4)cc3C2)cc1OC,,"inconclusive: 56.2 µM [inhibitor, partial curve, poor fit]",
CN(C)C(=O)c1n[nH]c2c1CN(C(=O)c1ccc(F)c(F)c1)CC2,inactive: -14.6%,,
COc1ccccc1-c1n[nH]c2c1CC(=O)N(CC1CC1)C2,,"inconclusive: 25.1 µM [inhibitor, partial curve, poor fit]",
O=C(NCc1cccs1)c1cc2n(n1)CC(c1ccc3c(c1)OCO3)OC2 (configuration not stated),,"inconclusive: 44.7 µM [inhibitor, partial curve, poor fit]",
C=CCN(Cc1cccc(OCC)c1)C(=O)CC1CNCCO1 (configuration not stated),inactive: -22.5%,,
COc1ccc(Nc2cnc3ccc(-c4ccc(OC)nc4)nn23)cn1,,"inconclusive: 22.4 µM [inhibitor, full curve, poor fit]",
Cc1ccc(C#N)c(N2CCCC(c3nnc(Cn4cccn4)n3C)C2)n1 (configuration not stated),,"inconclusive: 10 µM [inhibitor, full curve, poor fit]",
O=C(C1CC1)N1CCC2(CCCCO2)CC1,,,inactive
O=C(CCC1CCN(Cc2cccc3c2OCO3)CC1)NCc1cccc(C(F)(F)F)c1,,"inconclusive: 50.1 µM [inhibitor, partial curve, poor fit]",
Cc1noc2c(NCc3ccncc3)cc(-c3ccc(Cl)cc3)nc12,,active: 44.7 µM,
COC(=O)c1ccc(CO[C@H]2CCC=C3C[C@@H](O)CC[C@@]32C)cc1,,"inconclusive: 70.8 µM [inhibitor, single point]",
CCC[C@H]1CN(C(C)=O)C[C@@H]1NC(=O)c1ccc(N2CCCC2=O)cc1,,,inactive
COc1ccc(Nc2nc(-c3cccc(OC)c3)no2)cc1,inactive: -63.5%,,
CC(C)CN1C(=O)c2cccn2CC1CNC(=O)c1cccc(F)c1 (configuration not stated),inactive: 0.535%,,
COc1ccc(CN(C)C(=O)C2(c3ccc(OC)cc3)CCOCC2)cc1,inactive: -9.91%,,

SMILES,"activity change, negative = cytotoxicity",Potency,outcome
CCC(=O)N1CCc2c(C(=O)NCc3ccncc3)cccc21,inactive: 4.33%,,
COc1ccc(Nc2ccnc(N3CCC(NC(=O)c4ccccc4OC)CC3)n2)cc1,,"inconclusive: 50.1 µM [inhibitor, partial curve, poor fit]",
COc1ccc(N2CC(c3noc(-c4cc(Cl)ccc4OC)n3)CC2=O)cc1 (configuration not stated),,"inconclusive: 44.7 µM [inhibitor, partial curve, poor fit]",
O=C(Nc1cccc(F)c1)C1CN(C2CCCC2)C(=O)N1 (configuration not stated),inactive: -0.209% [at 138 µM],,
O=C(CCC1CCCN(Cc2nc3c(s2)CCCC3)C1)Nc1ccccc1F (configuration not stated),,"inconclusive: 22.4 µM [inhibitor, full curve]",
Cc1nc2cccnc2n1CC1CCCN(C(=O)Nc2ccccc2Cl)C1 (configuration not stated),inactive: -19.5%,,
COc1ccc(CNc2ncnc3c2CN(c2ccc(OC)cc2)C(=O)CN3C)cc1,,"inconclusive: 50.1 µM [inhibitor, partial curve, poor fit]",
CC(C)NC(=O)C1CCN(C(=O)c2ncn3c2COC(c2ccccc2)C3)CC1 (configuration not stated),inactive: -11.8%,,
O=C1Cc2c(-c3ccccc3OCc3ccccc3)n[nH]c2CN1Cc1ccccn1,,"inconclusive: 89.1 µM [inhibitor, partial curve, poor fit]",
CC(C)Oc1cccc(-c2n[nH]c3c2CC(=O)N(CCOc2ccccc2)C3)c1,,"inconclusive: 89.1 µM [inhibitor, partial curve]",
Cc1ccccc1NC(=O)Cc1c[nH]c2ncc(-c3cnn(C)c3)cc12,,active: 22.4 µM,
O=C(c1ccncc1)N1CCc2c(nc3cc(-c4ccccc4Cl)[nH]n3c2=O)C1,,"inconclusive: 70.8 µM [inhibitor, partial curve, poor fit]",
CCCCN1C(=O)[C@@H]2C[C@@H](O)CN2C2(CN(Cc3cnc4ccccc4c3)C2)C1=O,inactive: -0.255% [at 174 µM],,
COc1ccc(C(=O)N2CCC[C@H]2c2nc(-c3ccc(F)cc3)no2)c(OC)c1,,"inconclusive: 50.1 µM [inhibitor, partial curve, poor fit]",
Cc1c(CN2CCC(O)(c3ccccc3)[C@H](N3CCCC3)C2)cnn1C (some centres not stated),,"inconclusive: 44.7 µM [inhibitor, partial curve, poor fit]",
COCCNC(=O)[C@H]1C[C@H](Oc2ccccc2)CN1C(=O)NCc1ccc(OC)cc1,inactive: -4.34%,,
Cc1nccn1-c1ccccc1CNC(=O)[C@H]1CC[C@@H](N)C1,,,inactive
O=C(NC1CCCC1)N1CCC(Oc2ccc(-c3noc(C4CC4)n3)cc2)C1 (configuration not stated),,"inconclusive: 31.6 µM [inhibitor, partial curve]",
Cc1cccc(OCC2(CNC(=O)c3cc(C)nn3C)C[C@@H](O)[C@@H](O)C2)n1 (some centres not stated),inactive: -32.2% [at 138 µM],,
O=C1CC(c2ccccc2)N(C(=O)CNC(=O)c2[nH]nc3c2CCc2ccccc2-3)CCCCCCN1 (configuration not stated),inactive: -42.2%,,
O=C(Cc1cccc(F)c1)N1CCN(C(=O)c2nnn3c2COC(c2ccccc2)C3)CC1 (configuration not stated),inactive: 0.342%,,
